Data taken from article PMC9600267, “The Antibacterial Type VII Secretion System of Bacillus subtilis: Structure and Interactions of the Pseudokinase YukC/EssB” (mBio, 2022).
Results are given in words; binding and its absence hold for the method and conditions named. Some results given as binding are weak or reduced against the parent protein; the word gives no strength. Where a sequence is shown, tags or fusion partners need not be part of it.

Legend:
Assay in all cases: two-hybrid; bacterial two-hybrid (BACTH) in E. coli BTH101; T25 (pKT25/pKNT25) and T18 (pUT18/pUT18C) fusions; spots on LB with X-Gal and IPTG, 25°C, imaged after 48 h
[1] = target: T1, YukC (full length), bacterial two-hybrid fusion (Bacillus subtilis 168) (UniProt P71070)
T1 sequence: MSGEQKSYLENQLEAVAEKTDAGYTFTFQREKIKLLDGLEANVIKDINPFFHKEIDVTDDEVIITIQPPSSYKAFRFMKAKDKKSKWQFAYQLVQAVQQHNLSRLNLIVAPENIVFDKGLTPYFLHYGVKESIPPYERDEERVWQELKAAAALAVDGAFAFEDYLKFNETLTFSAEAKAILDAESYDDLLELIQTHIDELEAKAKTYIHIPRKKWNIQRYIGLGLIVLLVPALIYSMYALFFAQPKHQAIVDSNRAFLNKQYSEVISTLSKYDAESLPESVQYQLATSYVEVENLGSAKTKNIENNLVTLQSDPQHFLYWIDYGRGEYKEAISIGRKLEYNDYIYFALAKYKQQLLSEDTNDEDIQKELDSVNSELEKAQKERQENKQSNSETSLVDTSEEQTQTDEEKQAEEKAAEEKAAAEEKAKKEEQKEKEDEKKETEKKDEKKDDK

[2] = target: T2, YukD, bacterial two-hybrid fusion (Bacillus subtilis 168) (UniProt P71071)
T2 sequence: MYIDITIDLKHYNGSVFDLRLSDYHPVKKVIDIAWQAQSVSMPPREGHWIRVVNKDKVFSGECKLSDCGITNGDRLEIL

[3] = target: T3, YueB (full length), bacterial two-hybrid fusion (Bacillus subtilis 168) (UniProt O32101)
T3 sequence: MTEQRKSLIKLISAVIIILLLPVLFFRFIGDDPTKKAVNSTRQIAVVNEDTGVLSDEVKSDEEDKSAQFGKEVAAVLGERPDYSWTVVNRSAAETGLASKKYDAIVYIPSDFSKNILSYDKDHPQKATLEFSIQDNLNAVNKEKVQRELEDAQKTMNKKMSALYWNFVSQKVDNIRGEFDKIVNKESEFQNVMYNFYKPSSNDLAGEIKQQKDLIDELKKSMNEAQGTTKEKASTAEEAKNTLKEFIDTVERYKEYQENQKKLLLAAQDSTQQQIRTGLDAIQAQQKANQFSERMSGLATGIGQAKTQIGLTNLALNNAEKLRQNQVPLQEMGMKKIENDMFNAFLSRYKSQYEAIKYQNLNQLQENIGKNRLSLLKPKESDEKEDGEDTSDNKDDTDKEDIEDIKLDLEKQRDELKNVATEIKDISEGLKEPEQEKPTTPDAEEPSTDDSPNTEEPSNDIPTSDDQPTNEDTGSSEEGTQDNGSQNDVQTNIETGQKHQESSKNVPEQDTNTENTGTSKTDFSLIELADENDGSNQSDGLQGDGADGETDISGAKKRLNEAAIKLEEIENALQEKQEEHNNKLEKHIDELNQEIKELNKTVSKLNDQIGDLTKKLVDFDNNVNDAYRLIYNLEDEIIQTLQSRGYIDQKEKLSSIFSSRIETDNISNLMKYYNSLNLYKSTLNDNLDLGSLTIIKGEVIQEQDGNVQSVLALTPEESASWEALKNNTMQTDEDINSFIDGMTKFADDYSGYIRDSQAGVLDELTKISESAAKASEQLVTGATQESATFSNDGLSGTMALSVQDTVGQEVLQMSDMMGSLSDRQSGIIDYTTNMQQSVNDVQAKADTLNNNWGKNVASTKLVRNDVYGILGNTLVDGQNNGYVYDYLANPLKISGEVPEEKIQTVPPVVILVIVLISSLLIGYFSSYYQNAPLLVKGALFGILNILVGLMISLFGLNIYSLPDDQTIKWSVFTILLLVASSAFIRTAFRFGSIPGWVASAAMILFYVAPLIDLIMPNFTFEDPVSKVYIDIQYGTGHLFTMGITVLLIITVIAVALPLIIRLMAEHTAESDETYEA

binding [1]: binds
binding [2]: binds weakly
binding [3]: binds
B1: YukC (full length), bacterial two-hybrid fusion (protein, UniProt P71070 1-451)
chain: T1 sequence
